PubChem BioAssay AID504832 (National Center for Advancing Translational Sciences (NCATS), 2011)
Among all 310,000 compounds or so, about 18,000 (5.8%) were called active. Inconclusive means that the source gave no clear call. Such entries were picked first, then a sample of the others. The call rests on the fitted dose curve; in most records, active means well fitted inhibition curve with a large enough effect; inconclusive means small, poorly fitted or top-dose-only effect, or another doubt; inactive means no such curve, though single readings can be large or run the other way. No potency is given beside an inconclusive call; the fits are too rough.

Assay: Primary qHTS for delayed death inhibitors of the malarial parasite plastid, 48 hour incubation
Settings: P. falciparum luciferase growth in erythrocytes; series mostly up to 28.7 µM
In short: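 Cell-based growth assay: transgenic P. falciparum expressing firefly luciferase, cultured in red cells within RPMI 1640 containing 0.5% w/v Albumax, 24 mM bicarbonate and gentamycin. A drop in luciferase activity indicates inhibition.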
Potency means the concentration at half of the fitted maximal effect; tags describe the fitted curve by direction and shape.

SMILES	Potency
Nc1ccc(C(=O)N/N=C/c2cccc(Oc3ccccc3)c2)cc1	inactive
COc1ccc(S(=O)(=O)N2CCOC2CNC(=O)C(=O)NCCc2ccccc2OC)cc1 (configuration not stated)	inconclusive [inhibitor, single point]
Cc1ccc(S(=O)(=O)c2nnn3c2nc(NCCCN2CCCC2=O)c2ccccc23)cc1C	inconclusive [inhibitor, partial curve]
CC(C)c1ccc(S(=O)(=O)N2CCN(C(=O)CCNS(=O)(=O)c3ccccc3F)CC2)cc1	inconclusive [inhibitor, partial curve]
CC(C)Cn1c(N)c(C(=O)COC(=O)c2ccc3c(c2)OCCO3)c(=O)n(C)c1=O	inconclusive [inhibitor, single point]
Cc1cccc(C(=O)O/N=C2\CCSc3ccc(C)cc32)c1	inactive
CCOC(=O)/C=C1\SCC(=O)N1CC(=O)NC(c1ccccc1)c1ccccc1	inconclusive [inhibitor, partial curve, poor fit]
CC(C)c1ccc(/C=C2\SC(N3CCCC3)=NC2=O)cc1	inconclusive [inhibitor, single point]
Cc1cc(C)nc(N/N=C/c2c(CO)cnc(C)c2O)n1	active: 10.4 µM
CCOC(=O)c1c(-c2ccccc2)oc2ccc(OCC(=O)NN)cc12	inactive
CCCCN(C(=O)c1cccc(S(=O)(=O)N2CC(C)OC(C)C2)c1)c1c(N)n(CCCC)c(=O)[nH]c1=O (configuration not stated)	inconclusive [inhibitor, partial curve]
Cc1ccc(N/C=C2\CCCCC2=O)nc1	inactive
NC(=O)CSc1nc(C23CC4CC(CC(C4)C2)C3)nc2ccccc12	inconclusive [inhibitor, single point]
CN(C)c1ccc(S(=O)(=O)NCC(=O)NCCC2=CCCCC2)cc1[N+](=O)[O-]	active: 11.7 µM
CCOc1ncccc1C(=O)Nc1cccc(Cl)c1Cl	inactive
CCc1ccccc1NC(=S)N(CCN1CCCCC1)Cc1ccco1	inconclusive [inhibitor, partial curve, poor fit]
CCC(=O)Nc1cc(C)c(NC(=O)C23CC4CC(CC(C4)C2)C3)cn1	inconclusive [inhibitor, full curve]
O=C1N/C(=N\N=C\c2cccnc2)SC1Cc1ccc(SC(F)F)cc1 (configuration not stated)	active: 3.29 µM
CCCOc1ccc(NC(=O)Cc2ccc(S(=O)(=O)N3CCOCC3)s2)cc1OCCC	inconclusive [inhibitor, partial curve, poor fit]
NC(=O)c1cc(S(=O)(=O)NCc2cccs2)cs1	inactive
O=C(NC1CCc2ccccc21)C12CN(Cc3ccccc3)CC1C(c1cccc([N+](=O)[O-])c1)=NO2 (configuration not stated)	active: 3.7 µM
CNC[C@H](CC1CCCCC1)NC[C@H](CO)NCCc1cccc(C(F)(F)F)c1	inconclusive [inhibitor, full curve]
COCCCn1c(N)c(C(=O)OCCOC)c2nc3ccccc3nc21	inactive
O=C(NN1C(=O)c2ccccc2C1=O)c1ccncc1	inactive

SMILES	Potency
Cc1cc(Cl)ccc1OC(C)C(=O)Nc1ccccc1N1CCOCC1 (configuration not stated)	active: 7.38 µM
CCOC(=O)C(NC(=O)c1ccc(F)cc1)(Nc1sc2c(c1C(N)=O)CCC2)C(F)(F)F (configuration not stated)	inconclusive [inhibitor, partial curve]
O=C(NCCC1=CCCCC1)c1cccc2c1C(=O)N(C1CCCCC1)C2	inconclusive [inhibitor, single point]
Fc1ccc2[nH]c3c(N4CCSCC4)ncnc3c2c1	active: 4.65 µM
COc1ccc(C(CNC(=O)c2oc3ccc(Br)cc3c2C)N2CCCCC2)cc1 (configuration not stated)	inconclusive [inhibitor, partial curve]
CC1CN(S(=O)(=O)c2ccc(C(=O)OCc3ccc(C#N)cc3)cc2)CC(C)O1 (configuration not stated)	inconclusive [inhibitor, single point]
O=C(Nc1cccc([N+](=O)[O-])c1)c1cc2ccccc2cc1O	active: 5.22 µM
CCc1nn(C(C)C(=O)N2CCc3ccccc3C2)c(=O)c2cc3occc3n12 (configuration not stated)	inconclusive [inhibitor, partial curve]
C/C(=N\NC(=O)COc1cccc(Br)c1)c1ccc2c(c1)OCCO2	inactive
c1ccc(-n2c(SCC3CCCCO3)nnc2-c2cnccn2)cc1 (configuration not stated)	inconclusive [inhibitor, single point]
Cc1cc(C)cc(N(C(=O)Cn2nnc3ccccc32)C(C(=O)NCc2ccco2)c2ccncc2)c1 (configuration not stated)	inactive
CCN(CC)C(=O)Cn1cc(C(=O)C(=O)NCCCN2CCOCC2)c2ccccc21	inactive
CSc1cccc(CN2CCC(CO)(Cc3ccccc3)CC2)c1	inconclusive [inhibitor, single point]
COc1ccc(-c2cc3nc(-c4ccccc4)cc(N4CCC(O)CC4)n3n2)cc1	active: 10.4 µM
O=C(Nc1nc2c(F)cccc2s1)c1ccc([N+](=O)[O-])o1	inconclusive [inhibitor, full curve, poor fit]
CN(CC(=O)Nc1ccccc1Br)C(=O)c1cc(Cl)nc2ccccc12	inconclusive [inhibitor, single point]
O=C(Oc1ccc2c(=O)c(Cl)coc2c1)c1cccnc1	inactive
COc1ccccc1NC(=O)Cc1csc(NC(=S)Nc2ccccc2)n1	inactive
Cc1ccc2cccc(S(=O)(=O)N3CCN(c4ccccc4F)CC3)c2n1	inconclusive [inhibitor, single point]
O=c1c(Br)c(N2CCCCC2)cnn1-c1ccccc1	inactive
CCC1(C(=O)c2ccccc2)C(c2ccc([N+](=O)[O-])cc2)C1(C(=O)OC)C(=O)OC (configuration not stated)	active: 13.1 µM
COc1ccc([C@@H]2CC=C(C(=O)O)[C@H](c3cccc(Cl)c3)N2S(=O)(=O)c2ccccc2C)cc1	inconclusive [inhibitor, single point]
Cc1ccccc1NC(=O)c1cccc(Cn2cc(Br)c([N+](=O)[O-])n2)c1	inconclusive [inhibitor, single point]
C#CCOCCOCCOCCNc1nc(N2CCN(C(=O)CCCCCCCCCCNC(=O)[C@H]([C@@H](C)CC)n3cc(CCCCCN)nn3)CC2)nc(N2CCN(C(=O)CCCCCCCCCCNC(=O)[C@@H]([C@H](C)O)n3cc(C)nn3)CC2)n1	active: 0.465 µM

SMILES	Potency
COc1ccc2[nH]c3c(c2c1)CCN1C(=O)N([C@@H](C)C(=O)NCCc2ccc(F)cc2)C(=O)[C@]31C	inactive
Cc1c(C(=O)N2CCN(C(c3ccccc3)c3ccccc3)CC2)oc2ccccc12	active: 6.57 µM
COc1ccc(OC)c(C(=O)CSc2nccc(-c3ccc(Br)cc3)n2)c1	active: 11.7 µM
O=C(Nc1ccc(N2CCCCC2)cc1)c1ccc2ccccc2n1	inactive
CS(=O)(=O)N(Cc1cc2ccccc2[nH]c1=O)C1CCCCC1	inactive
CCN(CC)c1ccc(/C=N/n2c(-c3ccccc3Br)n[nH]c2=S)cc1	inconclusive [inhibitor, partial curve, poor fit]
O=C(COC(=O)c1cn(-c2ccccc2)nc1-c1cccnc1)NC1CC1	inactive
COc1cccc(-c2csc(N3CCN(S(=O)(=O)c4ccc(F)cc4)CC3)n2)c1	inconclusive [inhibitor, partial curve, poor fit]
CCn1c(SCC(=O)N/N=C/c2ccc(C)o2)nnc1-c1ccc(C(C)(C)C)cc1	inactive
O=C(Nc1ccc([N+](=O)[O-])cc1)N1CCc2ccccc2C1	inconclusive [inhibitor, single point]
O=c1[nH]cnc2scc(-c3ccccc3)c12	active: 2.62 µM
CN(Cc1cnn(C)c1)C(=O)CC1C(=O)NCCN1Cc1cccc(Oc2ccccc2)c1 (configuration not stated)	inactive
CNC(=S)N(CCc1ccc(OC)c(OC)c1)C1CC(=O)N(c2ccccc2)C1=O (configuration not stated)	inconclusive [inhibitor, single point]
COc1ccc(NC(=O)CC2SC(=N)N(c3ccccc3)C2=O)c(OC)c1 (configuration not stated)	inactive
CCCN(Cc1cc2cc(C)ccc2[nH]c1=O)C(=O)c1cccc([N+](=O)[O-])c1	inconclusive [inhibitor, single point]
Cc1cc(C)n(CCNc2nc3nonc3nc2N2CCCCC2)n1	inactive
C=CCOC(=O)C1=C[C@H](C2CCCCC2)[C@@H](CCCO)[C@H](OCC)O1	inconclusive [inhibitor, partial curve, poor fit]
CS(=O)(=O)N(CC(=O)NCCSCc1c(F)cccc1Cl)c1ccc2c(c1)OCO2	active: 11.7 µM
O=P(c1ccccc1)(c1ccccc1)c1nc(-c2ccccc2)oc1N1CCOCC1	inconclusive [inhibitor, partial curve]
CSCCC(NC(N)=O)C(=O)Nc1cccc(C#N)c1 (configuration not stated)	inactive
Nc1nonc1-n1nnc(C(=O)N/N=C/c2ccccc2Cl)c1COc1ccc(F)cc1	inactive
COC(=O)c1c(-c2ccc(OC)cc2)sc2cc3c(cc12)OCO3	inactive
Cc1ccc(S(=O)(=O)N2[C@@H](c3cccc(Cl)c3)C(C(=O)O)=CC[C@H]2c2ccc3c(c2)OCO3)cc1	active: 9.28 µM
COc1cc(CN2CCN(Cc3ccc(C)cc3)CC2)c([N+](=O)[O-])cc1OC	inconclusive [inhibitor, partial curve, poor fit]
